{
  "source": "paper PMC4336329",
  "about": "(PLoS ONE, 2015)",
  "note": "Out of some 310,000 compounds screened, about 14,000 (4.5%) showed an effect of 50% or more. The effect is printed as a negative number. The list shows a part of the results.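 Also: peak tail current of the secondary pulse compared with the same well before compound.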",
  "data": [
    {"molecular_target": "human ether-à-go-go-related gene (hERG) potassium channel (human, UniProt Q12809)", "sequence (Q12809 whole entry, looked up)": "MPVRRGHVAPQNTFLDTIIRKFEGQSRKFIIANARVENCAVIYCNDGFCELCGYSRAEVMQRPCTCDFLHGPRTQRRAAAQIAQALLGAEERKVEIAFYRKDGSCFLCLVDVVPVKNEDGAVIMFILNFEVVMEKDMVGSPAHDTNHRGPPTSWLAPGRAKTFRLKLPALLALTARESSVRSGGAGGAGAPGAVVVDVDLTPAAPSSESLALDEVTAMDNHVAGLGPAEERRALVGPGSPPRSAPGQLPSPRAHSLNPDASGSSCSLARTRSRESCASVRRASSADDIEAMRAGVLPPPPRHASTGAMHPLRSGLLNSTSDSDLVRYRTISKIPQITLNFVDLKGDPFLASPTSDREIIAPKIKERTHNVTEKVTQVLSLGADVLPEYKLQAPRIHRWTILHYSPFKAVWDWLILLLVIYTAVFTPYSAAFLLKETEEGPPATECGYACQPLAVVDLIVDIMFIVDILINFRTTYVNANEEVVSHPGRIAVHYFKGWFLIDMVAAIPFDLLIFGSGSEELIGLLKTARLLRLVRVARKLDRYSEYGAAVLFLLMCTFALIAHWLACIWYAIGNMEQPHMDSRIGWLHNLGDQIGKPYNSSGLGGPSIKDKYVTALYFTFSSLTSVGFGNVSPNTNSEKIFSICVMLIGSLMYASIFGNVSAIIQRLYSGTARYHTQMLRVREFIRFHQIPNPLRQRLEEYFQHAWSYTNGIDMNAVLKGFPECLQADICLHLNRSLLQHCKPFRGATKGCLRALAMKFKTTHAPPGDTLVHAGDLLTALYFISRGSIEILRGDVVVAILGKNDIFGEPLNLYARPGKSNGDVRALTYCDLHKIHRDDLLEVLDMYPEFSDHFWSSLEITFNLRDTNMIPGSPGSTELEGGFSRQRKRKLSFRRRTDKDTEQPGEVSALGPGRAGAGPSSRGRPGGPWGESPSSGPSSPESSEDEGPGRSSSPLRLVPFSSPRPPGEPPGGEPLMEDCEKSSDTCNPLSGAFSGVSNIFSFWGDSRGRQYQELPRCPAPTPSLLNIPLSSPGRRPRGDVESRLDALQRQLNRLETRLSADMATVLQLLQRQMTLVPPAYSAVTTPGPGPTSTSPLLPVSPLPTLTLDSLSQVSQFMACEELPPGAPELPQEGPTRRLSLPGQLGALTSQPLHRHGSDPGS", "assay": "primary screen, population patch clamp on CHO cells stably expressing hERG", "units": {"hERG current change (%, negative = inhibition) at 10uM": "%"}, "values": [
      {"smiles": "COc1ccc(OCC(=O)NCCCn2ccnc2)cc1.Cl", "hERG current change (%, negative = inhibition) at 10uM": 6.15},
      {"smiles": "Cc1ccc(CONC(=O)/N=C/N(C)C)cc1", "hERG current change (%, negative = inhibition) at 10uM": -7.43},
      {"smiles": "c1csc(-c2csc3ncnc(NCCCN4CCOCC4)c23)c1", "hERG current change (%, negative = inhibition) at 10uM": -16.4},
      {"smiles": "CCCn1nnc(NC(=O)c2ccccc2Cl)n1", "hERG current change (%, negative = inhibition) at 10uM": 6.62},
      {"smiles": "COc1cc(OC)c(OC)cc1/C=C1\\C(=O)NC(=O)N(Cc2ccccc2)C1=O", "hERG current change (%, negative = inhibition) at 10uM": 14.7},
      {"smiles": "O=C(COC(=O)Cc1cccc(F)c1)NCCc1ccccc1", "hERG current change (%, negative = inhibition) at 10uM": 1.94},
      {"smiles": "COc1ccc(C2CC(c3ccccc3)=NN2C(=O)CSc2nnnn2-c2cccc(C)c2)cc1", "note": "(stereo not drawn)", "hERG current change (%, negative = inhibition) at 10uM": 0.691},
      {"smiles": "O=C(CCCNC(=O)/C(=C/c1ccccc1F)NC(=O)c1ccccc1)OCc1ccccc1", "hERG current change (%, negative = inhibition) at 10uM": -5.02},
      {"smiles": "Cc1c(C(=O)N2CCCCCC2)c(S(=O)(=O)Nc2cccc(F)c2)c(C)n1C", "hERG current change (%, negative = inhibition) at 10uM": 9.56},
      {"smiles": "Cc1ccnc(SCC(=O)N2CCCc3ccccc32)n1", "hERG current change (%, negative = inhibition) at 10uM": 0.164},
      {"smiles": "Cc1ccc(C(C)NC(=O)C23CC4CC(CC(C4)C2)C3)cc1", "note": "(stereo not drawn)", "hERG current change (%, negative = inhibition) at 10uM": 11.4},
      {"smiles": "O=C(CC1c2ccccc2Oc2ccccc21)Nc1ccccc1C(F)(F)F", "hERG current change (%, negative = inhibition) at 10uM": 0.279},
      {"smiles": "CCCn1c(CN2CCN(C(=O)OCC)CC2)nc2cc([N+](=O)[O-])ccc21", "hERG current change (%, negative = inhibition) at 10uM": -64},
      {"smiles": "O=C(/C=C/c1ccc(Cl)cc1)Nc1ccc(N2CCCCC2)cc1", "hERG current change (%, negative = inhibition) at 10uM": -0.732},
      {"smiles": "Cc1cc(C)cc(CC2CC(=O)N(c3ccc(Cl)cn3)C2=O)c1", "note": "(stereo not drawn)", "hERG current change (%, negative = inhibition) at 10uM": -17.2},
      {"smiles": "Cc1ccc(-n2nnnc2SCc2nnc(-c3ccccc3Br)o2)c(C)c1", "hERG current change (%, negative = inhibition) at 10uM": 12.2},
      {"smiles": "CC(=O)c1cc(-c2ccccc2)n(CC(=O)Nc2cccc(C)c2C)c1C", "hERG current change (%, negative = inhibition) at 10uM": 2.16},
      {"smiles": "CCOC(CCNC(=O)c1cn(CCOC)c(=O)c2c1c1ccccc1n2C)OCC", "hERG current change (%, negative = inhibition) at 10uM": 5.72},
      {"smiles": "CSc1ccccc1NC(=O)CN(C)C(C)C(=O)NC(=O)NC1CCCCC1", "note": "(stereo not drawn)", "hERG current change (%, negative = inhibition) at 10uM": -20.5},
      {"smiles": "CC1(C)C(=O)NCCN1C(=O)CC1C(=O)NCCN1Cc1cccc(C(F)(F)F)c1", "note": "(stereo not drawn)", "hERG current change (%, negative = inhibition) at 10uM": 10.3},
      {"smiles": "CN(c1ccccc1)S(=O)(=O)c1ccc(C(=O)NCCc2ccc(F)cc2)cc1", "hERG current change (%, negative = inhibition) at 10uM": -21.1},
      {"smiles": "CCOC(=O)N1CCN(S(=O)(=O)c2ccc(C)cc2)C1c1ccc(OC)cc1", "note": "(stereo not drawn)", "hERG current change (%, negative = inhibition) at 10uM": -11.9},
      {"smiles": "O=C(CN1C(=O)NC2(CCCC2)C1=O)N1CCN(S(=O)(=O)c2ccccc2[N+](=O)[O-])CC1", "hERG current change (%, negative = inhibition) at 10uM": 7.61},
      {"smiles": "Nc1nc2ccc([N+](=O)[O-])cc2[nH]1", "hERG current change (%, negative = inhibition) at 10uM": 20.6}
    ]}
  ]
}
